Among the data in article PMC3629153 are binding values, retold here.

Chains of the proteins cited; added tags and fusions are not shown. Residues count along the entry.
UniProt P21926: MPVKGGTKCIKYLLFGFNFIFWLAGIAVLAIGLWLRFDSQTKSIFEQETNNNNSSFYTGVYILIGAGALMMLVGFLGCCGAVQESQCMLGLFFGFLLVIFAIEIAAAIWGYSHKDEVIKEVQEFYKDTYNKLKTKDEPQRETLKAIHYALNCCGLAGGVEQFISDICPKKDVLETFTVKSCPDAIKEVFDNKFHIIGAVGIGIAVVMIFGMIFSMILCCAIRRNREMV
UniProt P08174, residues 35-353: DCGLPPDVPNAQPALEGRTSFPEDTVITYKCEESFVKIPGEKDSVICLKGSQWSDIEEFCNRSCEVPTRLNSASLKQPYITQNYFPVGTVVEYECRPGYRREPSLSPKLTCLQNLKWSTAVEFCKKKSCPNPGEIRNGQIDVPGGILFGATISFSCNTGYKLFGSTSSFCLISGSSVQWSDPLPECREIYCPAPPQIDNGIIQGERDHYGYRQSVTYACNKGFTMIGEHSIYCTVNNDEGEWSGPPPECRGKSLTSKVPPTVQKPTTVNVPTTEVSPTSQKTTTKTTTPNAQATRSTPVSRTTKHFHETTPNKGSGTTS

The target of experiment [1] is T1, tetraspanin CD151 (human (endogenous in MDA-MB-231)) (UniProt P48509).
T1 sequence: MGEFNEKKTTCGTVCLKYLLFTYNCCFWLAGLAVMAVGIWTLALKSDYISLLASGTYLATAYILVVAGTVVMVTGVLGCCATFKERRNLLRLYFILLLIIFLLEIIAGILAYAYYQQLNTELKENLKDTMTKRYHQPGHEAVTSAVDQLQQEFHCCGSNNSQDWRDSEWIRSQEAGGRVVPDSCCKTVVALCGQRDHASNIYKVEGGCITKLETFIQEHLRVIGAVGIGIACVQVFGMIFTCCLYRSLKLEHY
Briefly: co-IP; MDA-MB-231 wild type cells (also CD151si and CD151RX cells) treated with 100 nM PMA for 30 min, lysed in 1% Brij 99; CD9, CD151, α3 integrin or CD55 immunoprecipitated; blot for PKCα; PMA enhances the α3β1-PKCα association above basal levels.

Experiment [2] has as its target tetraspanin CD9 (human (endogenous in MDA-MB-231)) (UniProt P21926). Described as above.
Experiment [3] concerns the target CD55 (human (endogenous in MDA-MB-231)) (UniProt P08174). Described as above.
In experiment [4] the target is T1, tetraspanin CD151 (human (endogenous in MDA-MB-231)). The experiment is described as follows: co-IP; MDA-MB-231 wild type cells (also CD151si cells) lysed in 1% Brij 58; CD9, CD151, α3 integrin or CD55 immunoprecipitated; blot for PKCα.
For experiment [5], the target named is tetraspanin CD9 (human (endogenous in MDA-MB-231)) (UniProt P21926). The description is as above.
Experiment [6] addresses CD55 (human (endogenous in MDA-MB-231)) (UniProt P08174). The description is as above.

No constants are given. Whether binding was seen depends on the method and setting. Binding seen in cells or lysates may run through a third protein. Some entries that bind do so weakly or less than the wild type.

For “PKCα (from UniProt P17252 1-672) (enzyme)”, the binding entry in experiment [1] is on record as “binds”; in experiment [2], “binds”; in experiment [3], “no binding”; in experiment [4], “binds”; in experiment [5] it was “binds”; in experiment [6], “no binding”.
